Patent publication US20250115571A1, “OXOPIPERAZINE DERIVATIVES” (Inthera Bioscience AG, priority 2017, published 2025)
The name of at least one read-out is uncertain. Marks after values point to notes of the source that are not given here.

tested on: CaSki cells; test: Colony Formation Assay (CFA), 14 days; format: cell-based, human; details: colony formation assay, class by % inhibition at 0.7, 6 or 50 μM

SMILES | Activity (inhibition of colony formation)
Cc1nc(CC2CCN(C(=O)[C@H](CC(C)C)N3CCN[C@@H](CC(C)C)C3=O)CC2)[nH]c1C [Compound 58, (S)-1-[(S)-1-({4-[(4,5-Dimethyl-1H-imidazol-2-yl)methyl]-1-piperidyl}carbonyl)-3-methylbutyl]-3-isobutyl-2-piperazinone] | +++ (more than 90% inhibition of colony formation at a concentration of 50 μM)
CCCC[C@@H](C(=O)N1CCC(CC(N)=O)CC1)N1CCN[C@@H](CC(C)C)C1=O [Compound 104, (1-{(S)-2-[(S)-3-Isobutyl-2-oxo-1-piperazinyl]hexa-noyl}-4-piperidyl)acetamide] | +* (greater than 0% but less than or equal to 50% inhibition of colony formation at a concentration of 50 μM)
CC(C)C[C@@H]1NCCN([C@@H](CC(C)C)C(=O)N2CC[C@@H](CC(N)=O)C[C@@H]2C)C1=O [Compound 69, [(2S,4R)-1-{(S)-2-[(S)-3-Isobutyl-2-oxo-1-piperazinyl]-4-methylvaleryl}-2-methyl-4-piperidyl]acetamide] | +++ (more than 90% inhibition of colony formation at a concentration of 50 μM)
CCN(C(=O)CC1CCN(C(=O)[C@H](Cc2ccccc2)N2CCN[C@@H](CC(C)C)C2=O)CC1)C(C)C [Compound 48, (S)-1-[(S)-2-(4-{2-[N-Ethyl(isopropyl)ami-no]-2-oxoethyl}-1-piperidyl)-1-benzyl-2-oxoethyl]-3-isobutyl-2-piperazinone] | ++ (more than 50% inhibition of colony formation at a concentration of 50 μM)
CC(C)C[C@@H]1NCCN([C@@H](CC(C)C)C(=O)N2CCC3(C[C@@H]2C)OCC2(CCCC2N(C)C)CO3)C1=O.CS(=O)(=O)O (stereo partly drawn) [Compound 299, (S)-1-[(S)-1-({(10S)-1-(Dimethylamino)-10-methyl-7,14-dioxa-11-aza-11-dispiro[4.2.5.2]pen-dtaecyl}carbonyl)-3-methylbutyl]-3-isobutyl-2-piperazinone, methanesulfonic acid salt] | *+ (greater than 0% but less than or equal to 50% inhibition of colony formation at a concentration of 0.7 μM)
NC(=O)CC1CCN(C(=O)[C@H](CC2CC2)N2CCN[C@@H](CC3CC3)C2=O)CC1 [Compound 109, (1-{(S)-2-[(S)-3-(Cyclopropylmethyl)-2-oxo-1-piperazinyl]-3-cyclopropylpro-pionyl}-4-piperidyl)acetamide] | +* (greater than 0% but less than or equal to 50% inhibition of colony formation at a concentration of 50 μM)
CC(C)C[C@@H]1NCCN([C@@H](CC(C)C)C(=O)N2CCC(COc3ccccc3)CC2)C1=O [Compound 56, (S)-1-[(S)-3-Methyl-1-{[4-(phenoxymethyl)-1-piperidyl]car-bonyl}butyl]-3-isobutyl-2-piperazinone] | +++ (more than 90% inhibition of colony formation at a concentration of 50 μM)
CC(C)C[C@@H]1NCCN([C@@H](CC2CC2)C(=O)N2CCC(CC(N)=O)CC2)C1=O [Compound 105, (1-{(S)-2-{(S)-3-Isobutyl-2-oxo-1-piperazinyl]-3-cyclopropylpro-pionyl}-4-piperidyl)acetamide] | +* (greater than 0% but less than or equal to 50% inhibition of colony formation at a concentration of 50 μM)
CC(C)C[C@@H]1NCCN([C@@H](CC(C)C)C(=O)N2CCC(C3CNC(=O)C3)CC2)C1=O (stereo partly drawn) [Compound 96, (S)-1-[(S)-3-Methyl-1-{[4-(5-oxo-3-pyrrolidinyl)-1-piperidyl]car-bonyl}butyl]-3-isobutyl-2-piperazinone] | ++ (more than 50% inhibition of colony formation at a concentration of 50 μM)
CC(C)C[C@H]1C(=O)N([C@@H](CC(C)C)C(=O)N2CCC(Cc3nccn3C)CC2)CCN1CC1CC1 [Compound 2, (S)-1-[(S)-3-Methyl-1-({4-[(1-methyl-1H-imidazol-2-yl)methyl]-1-piperidyl}car-bonyl)butyl]-4-(cyclopropylmethyl)-3-isobutyl-2-piperazinone] | +++ (more than 90% inhibition of colony formation at a concentration of 50 μM)
CC(C)C[C@@H]1NCCN([C@@H](CC(C)C)C(=O)N2CCC3(C[C@@H]2C)OCC(CN2CCC(C)CC2)CO3)C1=O (stereo partly drawn) [Compound 253, (3S)-1-[(2S)-4-methyl-1-oxo-1-[(3s,6s,8S)-8-methyl-3-[(4-methylpiperidin-1-yl)methyl]-1,5-dioxa-9-azaspiro[5.5]undec-an-9-yl]pentan-2-yl]-3-(2-methylpropyl)piper-azin-2-one (^≠), isomer Z] | ++++ (more than 90% inhibition of colony formation at a concentration of 6 μM)
CC(C)C[C@@H]1NCCN([C@@H](CC(C)C)C(=O)N2CCCC(CCC(N)=O)C2)C1=O (stereo partly drawn) [Compound 124, 3-(1-{(S)-2-[(S)-3-Isobutyl-2-oxo-1-piperazinyl]-4-methylvaleryl}-3-piperidyl)propiona-mide] | +* (greater than 0% but less than or equal to 50% inhibition of colony formation at a concentration of 50 μM)
CCN(C(=O)CC1(C)CCN(C(=O)[C@H](CC(C)C)N2CCN[C@@H](CC(C)C)C2=O)CC1)C(C)C [Compound 40, (S)-1-[(S)-1-[(4-{2-[N-Ethyl(isopropyl)amino]-2-oxoethyl}-4-methyl-1-piperidyl)carbonyl]-3-methylbutyl]-3-isobutyl-2-piperazinone] | +* (greater than 0% but less than or equal to 50% inhibition of colony formation at a concentration of 50 μM)
CC(C)C[C@@H]1NCCN([C@@H](CC(C)C)C(=O)N2CCC3(C[C@@H]2C)OC2CCC(N(C)C)CC2O3)C1=O (stereo partly drawn) [Compound 286, (S)-1-[(S)-1-({(2′S)-5-(Dimethylamino)-2′-methyl-3a,4,5,6,7,7a-hexahydrospiro[in-dene-2,4′-piperidin]-1′-yl}carbonyl)-3-methylbutyl]-3-isobutyl-2-piperazinone] | ++++ (more than 90% inhibition of colony formation at a concentration of 6 μM)
CC(C)C[C@@H]1NCCN([C@@H](CC(C)C)C(=O)N2CCCC(N3CCNC3=O)C2)C1=O (stereo partly drawn) [Compound 135, 1-(1-{(S)-2-[(S)-3-Isobutyl-2-oxo-1-piperazinyl]-4-methylvaleryl}-3-piperidyl)-2-imidazolidinone] | +* (greater than 0% but less than or equal to 50% inhibition of colony formation at a concentration of 50 μM)
CC(C)C[C@@H]1NCCN([C@@H](CC(C)C)C(=O)N2CCC(C(C)Oc3ccccc3)CC2)C1=O (stereo partly drawn) [Compound 27, (S)-1-[(S)-3-Methyl-1-{[4-(1-phenoxyethyl)-1-piperidyl]car-bonyl}butyl]-3-isobutyl-2-piperazinone] | +++ (more than 90% inhibition of colony formation at a concentration of 50 μM)

same assay, conditions: inhibition of colony formation, 14 days, classes at 6, 50 or 0.7 μM

SMILES | Activity
CC(C)C[C@@H]1NCCN([C@@H](CC(C)C)C(=O)N2CCC(COc3ccncc3)CC2)C1=O [Compound 164, (S)-1-[(S)-3-Methyl-1-({4-[(4-pyridyloxy)methyl]-1-piperidyl}car-bonyl)butyl]-3-isobutyl-2-piperazinone] | +++ (more than 90% inhibition of colony formation at a concentration of 50 μM)
CC(C)C[C@@H]1NCCN([C@@H](CC(C)C)C(=O)N2CCC(CC(=O)N(C)Cc3ccccc3)CC2)C1=O [Compound 178, (S)-1-[(S)-1-[(4-{2-[N-Methyl(benzyl)amino]-2-oxoethyl}-1-piperidyl)carbonyl]-3-methylbutyl]-3-isobutyl-2-piperazinone] | +++ (more than 90% inhibition of colony formation at a concentration of 50 μM)
CC(C)C[C@@H]1NCCN([C@@H](CC(C)C)C(=O)N2CCC(CCN(C)C3CC3)CC2)C1=O [Compound 162, (S)-1-[(S)-1-({4-[2-(N-Methyl-N-cyclopropylamino)ethyl]-1-piperidyl}carbonyl)-3-methylbutyl]-3-isobutyl-2-piperazinone] | ++++ (more than 90% inhibition of colony formation at a concentration of 6 μM)
CCN(CC)C(=O)CC1CCN(C(=O)[C@H](CC(C)C)N2CCN[C@@H](CC(C)C)C2=O)CC1 [Compound 151, (S)-1-[(S)-1-({4-[2-(Diethylamino)-2-oxoethyl]-1-piperidyl}carbonyl)-3-methylbutyl]-3-isobutyl-2-piperazinone] | +* (greater than 0% but less than or equal to 50% inhibition of colony formation at a concentration of 50 μM)
COC(=O)Cc1ccc(OCC2CCN(C(=O)[C@H](CC(C)C)N3CCN[C@@H](CC(C)C)C3=O)CC2)cc1 [Compound 191, Methyl {p-[(1-{(S)-2-[(S)-3-isobutyl-2-oxo-1-piperazinyl]-4-methylvaleryl}-4-piperidyl)meth-oxy]phenyl}acetate] | +++ (more than 90% inhibition of colony formation at a concentration of 50 μM)
C=CCN(CC=C)C(=O)CC1CCN(C(=O)[C@H](CC(C)C)N2CCN[C@@H](CC(C)C)C2=O)CC1 [Compound 179, (S)-1-[(S)-1-({4-[2-(Diallylamino)-2-oxoethyl]-1-piperidyl}carbonyl)-3-methylbutyl]-3-isobutyl-2-piperazinone] | ++ (more than 50% inhibition of colony formation at a concentration of 50 μM)
CC(C)C[C@@H]1NCCN([C@@H](CC(C)C)C(=O)N2CCC3(C[C@@H]2C)OCC(CN2CC=CC2)CO3)C1=O (stereo partly drawn) [Compound 317, (S)-1-[(S)-1-({(S)-3-[(2,5-Dihydro-1H-pyrrol-1-yl)methyl]-8-methyl-1,5-dioxa-9-aza-9-spiro[5.5]undecyl}car-bonyl)-3-methylbutyl]-3-isobutyl-2-piperazinone] | ++++ (more than 90% inhibition of colony formation at a concentration of 6 μM)
CC(C)C[C@@H]1NCCN([C@@H](CC(C)C)C(=O)N2CCC(CC(=O)N3CCOCC3)CC2)C1=O [Compound 149, (S)-1-[(S)-3-Methyl-1-{[4-(2-morpholino-2-oxoethyl)-1-piperidyl]car-bonyl}butyl]-3-isobutyl-2-piperazinone] | +* (greater than 0% but less than or equal to 50% inhibition of colony formation at a concentration of 50 μM)
